Source: the antibiotic and cytotoxicity screens of Wong et al. (2023)
The list shows a part of the results.

How the values were obtained:
[1] = system: HSkMC (human skeletal muscle cells); test: cytotoxicity call (relative viability < 0.9); details: 10 µM
[2] = system: HepG2; test: cytotoxicity call (relative viability < 0.9); details: 10 µM
[3] = system: S. aureus RN4220; test: growth inhibition call (relative growth <= 0.2); details: 50 µM

SMILES	cytotoxicity call [1]	cytotoxicity call [2]	growth inhibition call [3]
C[C@@H]1CN([C@@H](C)CO)C(=O)CCCn2nncc2CO[C@H]1CN(C)S(=O)(=O)c1ccc(-n2cccn2)cc1	inactive	inactive	inactive
COCC(=O)Nc1ccc2c(c1)OC[C@@H](C)N(C(=O)Cc1cccnc1)C[C@@H](C)[C@@H](OC)CN(C)C2=O	inactive	inactive	inactive
O=C(CN1CCOCC1)NCC[C@H]1CC[C@H](NC(=O)Cc2ccccn2)[C@H](CO)O1	inactive	inactive	inactive
C[C@H]1CN([C@@H](C)CO)C(=O)c2cc(NC(=O)Nc3ccccc3)ccc2O[C@H]1CN(C)Cc1ccc(-c2ccccc2)cc1	inactive	inactive	inactive
C[C@@H]1CN([C@H](C)CO)C(=O)Cc2cc(NC(=O)CCN3CCOCC3)ccc2O[C@@H]1CN(C)C(=O)Nc1ccc(F)cc1	inactive	inactive	inactive
C[C@@H]1CN([C@@H](C)CO)C(=O)Cc2cc(NC(=O)CCC(F)(F)F)ccc2O[C@@H]1CN(C)S(=O)(=O)c1cn(C)cn1	inactive	inactive	inactive
COc1ccc(COC[C@]23NC(=S)N(C(=O)c4ccccc4)[C@H](c4ccccc4O2)[C@H]3CO[Si](C)(C)C(C)(C)C)cc1	inactive	inactive	inactive
Cc1noc(C)c1S(=O)(=O)Nc1ccc2c(c1)C(=O)N([C@H](C)CO)C[C@H](C)[C@@H](CN(C)C(=O)NC(C)C)O2	inactive	inactive	inactive
CCC(=O)Nc1ccc2c(c1)C(=O)N(C)C[C@@H](OC)[C@H](C)CN(Cc1ccc(-c3ccccn3)cc1)[C@H](C)CO2	inactive	inactive	inactive
C[C@H]1CN([C@@H](C)CO)S(=O)(=O)c2ccc(C#CC3(O)CCCC3)cc2O[C@H]1CN(C)C(=O)c1cccnc1	inactive	inactive	inactive
CN(C)C(=O)c1cccc(-c2cccc(-c3nc(C(=O)NCc4ccccc4)cc4c3[C@H](CCO)N([S@@](=O)C(C)(C)C)C4)c2)c1	inactive	inactive	inactive
CC(=O)OC/C=C(\C)CCC=C(C)C	inactive	inactive	inactive
Cc1ccc(S(=O)(=O)Nc2ccc3c(c2)C(=O)N([C@H](C)CO)C[C@H](C)[C@@H](CN(C)C(=O)NC2CCCCC2)OCCCC[C@H](C)O3)cc1	inactive	inactive	inactive
C[C@H](CO)N1C[C@H](C)[C@@H](CN(C)Cc2ccc(C(=O)O)cc2)Oc2c(NC(=O)c3ccncc3)cccc2C1=O	inactive	inactive	inactive
C[C@H]1CN([C@@H](C)CO)C(=O)c2cc(C#CC3(O)CCCC3)cnc2O[C@@H]1CN(C)C(=O)CN(C)C	inactive	inactive	inactive
CC(C)CC#Cc1ccc2c(c1)O[C@@H](CN(C)C(=O)c1ccccn1)[C@H](C)CN([C@@H](C)CO)S2(=O)=O	inactive	inactive	inactive
COc1ccc(S(=O)(=O)Nc2cccc3c2O[C@@H](CN(C)S(=O)(=O)c2ccccc2)[C@H](C)CN([C@H](C)CO)C3=O)cc1	inactive	inactive	inactive
O=C1c2ccccc2C(=O)c2c(NCCNCCO)ccc(NCCNCCO)c21	active	active	inactive
C[C@@H]1CN([C@H](C)CO)C(=O)Cc2cc(NC(=O)C3CCCCC3)ccc2O[C@@H]1CN(C)S(C)(=O)=O	inactive	inactive	inactive
C=C1C(=O)C(O)[C@@H]2O[C@@H]2C1=O (some centres not stated)	inactive	inactive	inactive
CO[C@@H]1CN(C)C(=O)c2ccc(NC(=O)Nc3ccccc3F)cc2OC[C@H](C)N(Cc2ccccc2C(=O)O)C[C@H]1C	inactive	inactive	inactive
COCCOC(=O)N1C(=O)[C@@]2(c3cc(C#Cc4ccc(OC)cc4)ccc31)[C@H](c1ccc(OCCO)cc1)N1[C@H](c3ccccc3)[C@H](c3ccccc3)OC(=O)[C@H]1[C@@H]2C(=O)NC[C@H](O)c1ccccc1	inactive	inactive	inactive
Cc1ccccc1S(=O)(=O)N1C[C@@H](O)COC[C@@H]2O[C@H](CC(=O)N3CCN(C)CC3)CC[C@H]21	inactive	inactive	inactive
O=c1cc(-c2ccccc2)oc2ccccc12	inactive	inactive	inactive
C[C@@H]1CCCCO[C@H](CN(C)Cc2ccc(C(F)(F)F)cc2)[C@H](C)CN([C@@H](C)CO)C(=O)c2cc(NC(=O)Nc3ccc4c(c3)OCO4)ccc2O1	inactive	active	inactive
C[C@@H]1CCCCO[C@@H](CN(C)S(=O)(=O)c2cn(C)cn2)[C@@H](C)CN([C@@H](C)CO)C(=O)c2cc(NS(=O)(=O)c3cccs3)ccc2O1	inactive	inactive	inactive
COCCOC(=O)N1C(=O)[C@@]2(c3cc(C#Cc4ccc(OC)cc4)ccc31)[C@H](c1ccccc1OCCO)N1[C@H](c3ccccc3)[C@H](c3ccccc3)OC(=O)[C@H]1[C@@H]2C(=O)N1CCc2cc(OC)c(OC)cc2C1	inactive	inactive	inactive
Cc1cccnc1[C@@H](NC(=O)C1CCN(Cc2ccc(Oc3ccccc3)cc2)CC1)c1ccc(F)cc1	inactive	inactive	inactive
NC(=O)N1Cc2nccn2C[C@H](Cn2cncn2)C1	inactive	inactive	inactive
